Laboratory results: the supplement of paper PMC3334620
The full ranking holds about 33,000 sequences; the median of “E-score (-0.5 to 0.5)” is about -0.032, and the highest 2% start at about 0.36. The list shows a part of the results.

Target: T1, Sko1 (UniProt Q02100)
T1 sequence: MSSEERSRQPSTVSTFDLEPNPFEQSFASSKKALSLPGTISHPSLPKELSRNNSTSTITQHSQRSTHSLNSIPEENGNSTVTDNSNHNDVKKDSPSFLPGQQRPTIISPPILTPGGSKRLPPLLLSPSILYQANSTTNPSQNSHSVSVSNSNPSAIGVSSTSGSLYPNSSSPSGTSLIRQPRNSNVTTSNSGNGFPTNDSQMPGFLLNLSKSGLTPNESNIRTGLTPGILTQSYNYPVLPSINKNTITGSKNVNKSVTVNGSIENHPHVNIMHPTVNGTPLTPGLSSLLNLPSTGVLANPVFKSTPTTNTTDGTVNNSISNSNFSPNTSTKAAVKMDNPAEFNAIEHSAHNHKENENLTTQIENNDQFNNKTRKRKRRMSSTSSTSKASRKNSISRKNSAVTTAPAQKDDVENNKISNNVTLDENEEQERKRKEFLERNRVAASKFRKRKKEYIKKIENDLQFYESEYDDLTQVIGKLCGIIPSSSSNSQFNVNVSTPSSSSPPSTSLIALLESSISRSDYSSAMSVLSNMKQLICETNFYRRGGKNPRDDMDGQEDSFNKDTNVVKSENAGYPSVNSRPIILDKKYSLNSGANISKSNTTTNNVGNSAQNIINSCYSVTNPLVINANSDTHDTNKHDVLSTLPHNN
Assay: PBM E-score (8-mer binding enrichment) (E-score (-0.5 to 0.5)); higher = stronger / more preferred TF binding; most listed sequences are background and not binding sites
Settings: protein concentration: 200 nM; construct: GST-full length
In short: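 Masliner-normalised scans of fluorescent anti-GST signal were the basis for scoring. That signal came from GST-tagged yeast transcription factors applied at about 100-200 nM to double-stranded universal all-10-mer Agilent arrays on fresh or once-stripped slides. Each ungapped eight-base word, pooled with its reverse complement, received an E-score from the Universal PBM Analysis Suite.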

Sequence	PBM E-score
GAGGTAGA	-0.155
CTTTAGTC	-0.0749
ATGCCGCG	-0.169
CTAGACTA	-0.139
GCCAGTAC	-0.0903
CTAGGGGC	-0.347
CTTAAACA	-0.0247
GACTGGAC	-0.178
ACTACTGG	-0.148
ATCGAGGG	-0.228
CGCAACCC	0.0124
CTGTCAGC	-0.218
ACAAATCC	0.0159
CCGTAAGC	-0.0492
GGGTCATA	-0.0307
AACACGGG	-0.124
GTGGTCGA	-0.107
CCTCGCCA	-0.321
GGCGGCTA	-0.19
AGATCCTA	-0.136
AGACGCAC	0.104
CCACGTGG	0.177
CACCTTGA	-0.195
ACCCACGC	-0.0576
TTCGAGAA	0.185

Sequence	PBM E-score
CCACGTGC	0.341
GACTGGCC	-0.338
GCATCAAA	0.128
AAGACTAC	-0.0828
CCCACTAC	0.137
ATAGACTA	0.0808
ATCCAAGC	-0.183
CATCTACA	0.114
AAGCAAGT	-0.127
CCGAGTCG	-0.264
TAACGGCA	0.0289
AACCTGCG	-0.229
ACACTCAC	-0.00305
ACTCTTAA	-0.0308
ACTCATGC	-0.0532
CGCTTTCC	-0.057
CAGCCAAA	-0.0839
AAGTGGTG	-0.113
GCCGAGAA	-0.198
AGTTTCTA	0.116
CTTTCAGC	-0.164
CGGCTATA	0.0503
AACCCCTT	-0.23
TCGATTAA	0.208
AGTGCGCC	-0.171

Sequence	PBM E-score
CAAGCACC	-0.203
GACTCGAC	-0.225
CTTACCTA	0.0888
CTCCAAAA	-0.0807
ACCACACG	0.204
GCCTGGTA	-0.144
CATGGAGG	-0.298
CTAGCGCC	-0.0924
GGTCTAAC	-0.242
CACTACCA	-0.029
AAGTGTGC	-0.0238
GCTGTTAC	-0.11
AACCAACT	0.0928
GTAGAGAC	-0.0355
ATTTGGTC	0.122
ACATAACC	0.0262
ACGCATCC	-0.00397
CAGCGTGG	-0.11
CCTTTTGA	0.0971
GCGTACAA	0.146
CACGGCTC	-0.184
ACTATGCG	-0.0229
CTCGCATC	-0.096
AGCATGAA	-0.0774
AATGGTCT	-0.125

Sequence	PBM E-score
ATGACCTC	0.246
GGGCAAGA	-0.0518
ACTCAGCG	-0.3
GATTAGAA	-0.0981
CTTCAGAC	-0.144
CTATGTTA	-0.0223
CATGTACA	0.0931
CCGTTTAC	-0.125
AACTGCGC	-0.0854
AGGGGAAA	-0.175
AATTGGCG	0.242
CCGTGACG	0.396
AAGATTTG	0.079
CAACGTCC	-0.0395
GTAGCCAC	-0.062
GATGATGA	0.259
ATTACTCC	0.0425
AAGATTGT	0.0296
GAGTAGGA	-0.281
AAGATATC	-0.00929
CAACTAGA	0.115
CTATTTGC	0.0444
CCTCGTTA	0.0799
CTTATATA	0.247
AAATTACA	0.261

Sequence	PBM E-score
CGCACTTC	0.0725
GCGGCTTA	-0.0704
GTCAAATA	0.219
ACATCTTC	0.0919
AAGAGGCT	-0.146
GGTCGGCA	-0.357
GATCGCGC	-0.00925
TCCCTAGA	-0.0439
CAACCTGA	-0.0685
CGTTCATA	0.228
CACGATAA	0.171
CATGCCGC	0.196
ACCGTTAA	-0.0408
GAGTTTGA	0.105
ACCTGGCC	-0.213
CATATACG	0.347
ACGGAAAC	0.047
AACAAGGA	0.134
GGAGCTCC	-0.186
CCTGGGCG	-0.0762
ATTTATCG	0.0247
CGAGTGCC	-0.181
CCTACCAG	-0.256
GCATACTA	-0.103
CCTAGCTA	-0.165

Sequence	PBM E-score
CCGGGTCA	-0.233
CAGAAAGA	0.0743
CACATTTA	0.0403
TGAAATCA	0.174
CCCATTCA	-0.162
ACTTGAAA	0.0359
ACCGATGA	0.0788
ATACAACC	0.0786
CGTTTGGC	-0.0178
AGGTTGTG	-0.0294
ATGGCCGC	-0.122
CACGTAGA	0.39
CGACTAAC	0.0121
GAACCCCA	-0.149
CCGATCTC	-0.302
CGGTACAG	-0.188
AGTGAATC	-0.0157
CGGTTAAG	-0.0415
AAGGACCT	-0.286
GAATCCCC	-0.347
CACATCCG	-0.0558
GCAAGAGC	-0.0717
CGATGACG	0.482
GCCAGTCA	-0.26
ACTCAGTC	-0.156

Sequence	PBM E-score
AGCATAAT	0.198
GCCCTCTA	-0.299
GCAGGGCA	-0.196
ACGCTCAG	-0.133
AAAACATG	0.0449
CAGTTACA	0.0781
GCGATTCA	-0.0266
AGCTGATC	-0.0352
CTCTCGAC	-0.164
AGATATCG	-0.0349
AGGGACCG	-0.358
CGACGGGA	-0.017
AGTAGTAA	0.0694
CACTGTGA	0.0204
CTCTTGAA	-0.0298
AATTAGAC	0.191
AGGAGCGA	-0.244
ATTGGTCA	-0.131
ATCCGGCA	-0.246
ATGACTAG	0.0773
ATCATCGA	0.2
TACGCAAA	0.415
